Some entries share one result that the patent states for a list of compounds. At least one compound was matched to its structure with a doubt left.
Columns and labels:
Conditions in all cases: reduction of motility vs negative control; 72 h incubation
[1] = test system: Dirofilaria immitis microfilariae; assay: In vitro assay 3: Dirofilaria immitis microfilariae (DIROIM L1), motility
[2] = test system: Litomosoides sigmodontis third-stage larvae; assay: In vitro assay 7: Litomosoides sigmodontis L3 (LTMOSI), motility
[3] = test system: Dirofilaria immitis third-stage larvae; assay: In vitro assay 4: Dirofilaria immitis (DIROIM L4), motility of larvae

Row | SMILES | EC50 [1] | EC50 [2] | EC50 [3]
1 | Cc1nn2c(C(C)C)c(C(=O)N[C@H]3CCc4ccccc43)cnc2c1-c1cc(Cl)cc(Cl)c1 [Example 8] | < 1 ppm | < 0.1 ppm | –
2 | Cc1nn2c(C(C)C)c(C(=O)N[C@H]3CCCc4ccccc43)cnc2c1-c1ccccc1Cl [Example 19] | < 1 ppm | < 0.1 ppm | –
3 | Cc1nn2c(C(C)C)c(C(=O)N[C@H]3CCc4ccccc43)cnc2c1-c1ccccc1Cl [Example 20] | < 0.1 ppm | < 1 ppm | < 0.1 ppm
4 | Cc1ccc2c(c1)[C@@H](NC(=O)c1cnc3c(-c4c(F)cccc4F)c(C)nn3c1C(C)C)CCC2 [Example 108] | < 0.1 ppm | < 0.1 ppm | < 0.1 ppm
5 | Cc1nn2c(C(C)C)c(C(=O)N[C@H]3CCOc4ccccc43)cnc2c1-c1cccc(OC(F)(F)F)c1F [Example 215] | < 0.1 ppm | < 0.1 ppm | < 0.1 ppm
6 | COc1c(Cl)ccc(-c2c(C)nn3c(C(C)C)c(C(=O)N[C@H]4CCOc5ccccc54)cnc23)c1F [Example 216] | < 0.1 ppm | < 0.1 ppm | < 0.1 ppm
7 | CC(C)c1c(C(=O)N[C@H]2CCOc3ccccc32)cnc2c(-c3cccc(F)c3F)c(C(F)F)nn12 [Example 279] | < 0.1 ppm | – | < 0.1 ppm
8 | O=C(N[C@H]1CCOc2ccccc21)c1cnc2c(-c3c(F)ccc(Cl)c3F)c(C(F)F)nn2c1C1CC1 [Example 280] | < 0.1 ppm | – | < 0.1 ppm
9 | Cc1nn2c(C3CC3)c(C(=O)N[C@H]3CCOc4ccccc43)cnc2c1-c1cccc(Cl)c1F [Example 480] | < 0.1 ppm | – | < 0.1 ppm
10 | CCc1c(C(=O)N[C@H]2CCOc3ccccc32)cnc2c(-c3ccc(F)c(OC)c3F)c(C)nn12 [Example 496] | < 0.1 ppm | – | < 0.1 ppm
11 | CC(C)c1c(C(=O)N[C@H]2CCOc3ccccc32)cnc2c(-c3ccc(F)c(F)c3)c(Cl)nn12 [Example 500] | < 10 ppm | – | –
12 | Cc1nn2c(C3CC3)c(C(=O)N[C@H]3CCOc4ccccc43)cnc2c1-c1cccc(O)c1 [Example 501] | < 10 ppm | – | –
13 | COc1c(F)ccc(-c2c(C(F)F)nn3c(C(C)C)c(C(=O)N[C@H]4CCOc5ccccc54)cnc23)c1F [Example 502] | < 1 ppm | – | –
14 | CC(C)c1c(C(=O)N[C@H]2CCOc3ccccc32)cnc2c(-c3c(Cl)cccc3Cl)c(C(F)F)nn12 [Example 503] | < 1 ppm | – | –
15 | Cc1nn2c(C3CC3)c(C(=O)N[C@H]3CCOc4ccccc43)cnc2c1-c1cc(C(F)(F)F)ccc1F [Example 504] | < 1 ppm | – | –
16 | CC(C)c1c(C(=O)N[C@H]2CCOc3ccccc32)cnc2c(-c3cccc(Cl)c3Cl)c(C(F)F)nn12 [Example 505] | < 0.1 ppm | – | –
17 | CC(C)c1c(C(=O)N[C@H]2CCOc3ccccc32)cnc2c(-c3c(F)cccc3Cl)c(C(F)F)nn12 [Example 506] | < 0.1 ppm | – | –
18 | CC(C)c1c(C(=O)N[C@H]2CCOc3ccccc32)cnc2c(-c3ccc(Cl)cc3Cl)c(C(F)F)nn12 [Example 507] | < 1 ppm | – | –
19 | CC(C)c1c(C(=O)N[C@H]2CCOc3ccccc32)cnc2c(-c3ccc(F)c(F)c3F)c(C(F)F)nn12 [Example 508] | < 1 ppm | – | –
20 | Cc1nn2c(C3CC3)c(C(=O)N[C@H]3CCOc4ccccc43)cnc2c1-c1cc(C(F)(F)F)ccc1Cl [Example 509] | < 1 ppm | – | –
21 | Cc1nn2c(C3CC3)c(C(=O)N[C@H]3CCOc4ccccc43)cnc2c1-c1cccc2c1CCO2 [Example 510] | < 1 ppm | – | –
22 | O=C(N[C@H]1CCOc2ccccc21)c1cnc2c(-c3ccc(Cl)cc3Cl)c(C(F)F)nn2c1C1CC1 [Example 511] | < 1 ppm | – | –
23 | O=C(N[C@H]1CCOc2ccccc21)c1cnc2c(-c3cccc(Cl)c3Cl)c(C(F)F)nn2c1C1CC1 [Example 512] | < 1 ppm | – | –

Row | SMILES | EC50 [1] | EC50 [2] | EC50 [3]
24 | COc1c(C(=O)N[C@H]2CCc3ccccc32)cnc2c(-c3c(F)cccc3Cl)c(C)nn12 [Example 513] | < 10 ppm | – | –
25 | COc1c(C(=O)N[C@H]2CCOc3ccccc32)cnc2c(-c3c(F)cccc3Cl)c(C)nn12 [Example 514] | < 10 ppm | – | –
26 | COc1c(C(=O)N[C@H]2CCOc3ccccc32)cnc2c(-c3cc(Cl)cc(Cl)c3F)c(C)nn12 [Example 515] | < 10 ppm | – | –
27 | COc1c(C(=O)N[C@H]2CCOc3ccccc32)cnc2c(-c3ccc(F)c(F)c3)c(C)nn12 [Example 519] | < 10 ppm | – | –
28 | COc1c(C(=O)N[C@H]2CCOc3ccccc32)cnc2c(-c3cc(Cl)cc(Cl)c3)c(C)nn12 [Example 521] | < 10 ppm | – | –
29 | Cc1nn2c(CN(C)C)c(C(=O)N[C@H]3CCc4ccccc43)cnc2c1-c1cccc(Cl)c1Cl [Example 522] | < 1 ppm | – | –
30 | Cc1nn2c(CN(C)C)c(C(=O)N[C@H]3CCOc4ccccc43)cnc2c1-c1cccc(Cl)c1Cl [Example 523] | < 1 ppm | – | –
31 | Cc1nn2c(C3CC3)c(C(=O)N[C@H]3CCOc4ccccc43)cnc2c1-c1ccnc(N2CCOCC2)c1 [Example 526] | < 10 ppm | – | –
32 | CSCCN(C)c1c(C(=O)N[C@H]2CCOc3ccccc32)cnc2c(-c3cccc(Cl)c3Cl)c(C)nn12 [Example 529] | < 0.1 ppm | – | –
33 | Cc1nn2c(N3CCOCC3)c(C(=O)N[C@H]3CCOc4ccccc43)cnc2c1-c1cccc(C(F)(F)F)c1F [Example 530] | < 0.1 ppm | – | –
34 | Cc1nn2c(NC3CC3)c(C(=O)N[C@H]3CCOc4ccccc43)cnc2c1-c1cc(F)cc(F)c1 [Example 539] | < 10 ppm | – | –
35 | Cc1nn2c(N(C)CCS(C)(=O)=O)c(C(=O)N[C@H]3CCOc4ccccc43)cnc2c1-c1cc(Cl)cc(Cl)c1 [Example 541] | < 0.1 ppm | – | –
36 | Cc1nn2c(NC3CC3)c(C(=O)N[C@H]3CCOc4ccccc43)cnc2c1-c1cc(Cl)cc(Cl)c1 [Example 542] | < 1 ppm | – | –
37 | Cc1nn2c(N3CCOCC3)c(C(=O)N[C@H]3CCOc4ccccc43)cnc2c1-c1ccc(F)c(N(C)C)c1F [Example 543] | < 1 ppm | – | –
38 | Cc1nn2c(N3CCOCC3)c(C(=O)N[C@H]3CCOc4ccccc43)cnc2c1-c1c(Cl)cccc1Cl [Example 544] | < 1 ppm | – | –
39 | Cc1nn2c(NC3CC3)c(C(=O)N[C@H]3CCOc4ccccc43)cnc2c1-c1cccc(Cl)c1Cl [Example 546] | < 1 ppm | – | –
40 | Cc1nn2c(N(C)C)c(C(=O)N[C@H]3CCOc4ccccc43)cnc2c1-c1cc(C(F)(F)F)ccc1F [Example 547] | < 1 ppm | – | –
41 | Cc1nn2c(N(C)C)c(C(=O)N[C@H]3CCOc4ccccc43)cnc2c1-c1ccc(F)c(N(C)C)c1F [Example 550] | < 0.1 ppm | – | –
42 | COc1c(F)ccc(-c2c(C)nn3c(N(C)C)c(C(=O)N[C@H]4CCOc5ccccc54)cnc23)c1F [Example 551] | < 0.1 ppm | – | –
43 | Cc1ccccc1-c1c(C)nn2c(N(C)C)c(C(=O)N[C@H]3CCOc4ccccc43)cnc12 [Example 553] | < 0.1 ppm | – | –
44 | Cc1nn2c(N(C)C)c(C(=O)N[C@H]3CCOc4ccccc43)cnc2c1-c1c(F)ccc(F)c1F [Example 554] | < 0.1 ppm | – | < 0.1 ppm
45 | Cc1nn2c(N(C)C3CC3)c(C(=O)N[C@H]3CCOc4ccccc43)cnc2c1-c1cc(Cl)cc(Cl)c1 [Example 555] | < 1 ppm | – | –
46 | Cc1nn2c(N(C)CCN(C)C)c(C(=O)N[C@H]3CCOc4ccccc43)cnc2c1-c1cc(Cl)cc(Cl)c1 [Example 556] | < 10 ppm | – | –
